Experimental data taken from PubChem BioAssay AID1346428 (National Center for Advancing Translational Sciences (NCATS), 2018).
Among all 48,000 compounds or so, about 1,200 (2.5%) were called active. Not shown: some 2% with an inconclusive outcome.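 Rule for the calls: active = activation of at least 60% and not above a set upper limit (about 1 call in 100 departs from these limits); inconclusive = activation of 40% to 60%, or above that upper limit; inactive = activation under 40%.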 The list shows a part of the results.

The compounds below were run against Probable G-protein coupled receptor 32 (Homo sapiens) (UniProt O75388) (assay: qHTS for Agonists of Human Resolvin D1 Receptor DRV1). Conditions: CHO-K1 GPR32 beta-arrestin PathHunter luminescence, 90 min; at 76.9 µM; stronger effect = higher value; zero percent set by DMSO-only wells.
Summary of the method: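 Step 1: seed CHO-K1 GPR32 beta-arrestin cells, 2,500/well, overnight at 37 °C. Step 2: add compounds, 90 min at 37 °C. Step 3: detection reagent, 1 h ambient, then luminescence.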
Note: 0% is about no effect.

Sequence of UniProt O75388 (O75388 whole entry, looked up): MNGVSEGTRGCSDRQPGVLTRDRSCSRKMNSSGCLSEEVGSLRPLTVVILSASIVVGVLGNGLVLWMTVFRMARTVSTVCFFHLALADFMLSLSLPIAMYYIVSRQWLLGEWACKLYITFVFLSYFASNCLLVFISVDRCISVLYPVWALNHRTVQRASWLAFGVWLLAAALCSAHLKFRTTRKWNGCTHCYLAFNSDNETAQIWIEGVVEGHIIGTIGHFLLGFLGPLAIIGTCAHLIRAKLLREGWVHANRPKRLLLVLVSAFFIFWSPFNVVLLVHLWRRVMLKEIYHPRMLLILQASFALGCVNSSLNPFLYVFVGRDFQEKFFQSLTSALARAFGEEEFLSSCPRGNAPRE

Row | SMILES | activation
1 | Cc1cccc(Cn2c(SCc3ccc(C(=O)NCc4ccccc4)cc3)nc3cccnc32)c1 | inactive: -4.93%
2 | COc1ccc(NC(=O)Cn2cc(C(=O)c3ccncc3)c(=O)c3cc(C)ccc32)cc1Cl | inactive: -2.18%
3 | COc1ccc(CNC(=O)CCc2c(C)c3ccc(OC)c(C)c3oc2=O)cc1OC | inactive: 3.1%
4 | CCNC(=O)C1CCCN(c2ncnc3onc(C)c23)C1 (centres undefined) | inactive: 6.66%
5 | COC(=O)c1ccc(-n2nnc(-c3nc(-c4ccccc4Cl)no3)c2C)cc1 | inactive: -10.9%
6 | Cc1nc2ccn(Cc3ccco3)c(=O)c2cc1C(=O)Nc1ccc(F)cc1 | inactive: -14%
7 | COc1ccc(NC(=O)Cn2nc(-c3ccccc3)c3cnc4ccc(C)cc4c32)cc1 | inactive: -13.9%
8 | CN1CCN(C(=O)Cn2c(-c3cccs3)cc3ccccc32)CC1 | inactive: -1.73%
9 | Cc1ccc(N2C(=O)CS(=O)(=O)C23C(=O)N(Cc2ccccc2C)c2ccccc23)cc1Cl (centres undefined) | inactive: 17.2%
10 | COc1cc(OC)cc(C(=O)Nc2ccc(-c3nc4ccccc4s3)c(C)c2)c1 | inactive: 11%
11 | CCOC(=O)c1c(NC(=O)COc2ccc(CC)cc2)sc2c1CCCC2 | inactive: -19.1%
12 | COc1ccc(-n2c(=O)[nH]c3cc(C(=O)NCCc4ccc(Cl)cc4)ccc3c2=O)cc1OC | inactive: 32.5%
13 | CCC(Sc1ncccc1C(=O)Oc1ccccc1Cl)C(=O)Nc1ccccc1OC (centres undefined) | inactive: -30.5%
14 | COc1ccc(NC(=O)C(NC(=O)C2CCC(C)CC2)C(C)C)cc1 (centres undefined) | inactive: -2.79%
15 | Cc1nn(C)c2c1c(C(F)(F)F)cc(=O)n2C(C)C(=O)NCCC(C)C (centres undefined) | inactive: -1.04%
16 | Cc1ccc2c(=O)c(C(=O)c3ccccc3)cn(CC(=O)Nc3ccc(C)c(Cl)c3)c2n1 | inactive: 5.8%
17 | CCCNC(=O)c1ccc2c(c1)nc(C)n2-c1cccc(C)c1 | inactive: -5.62%
18 | CC(=O)c1cccc(-n2c(=O)c3c4c(sc3n(CC(=O)Nc3ccccc3F)c2=O)CN(C(C)=O)CC4)c1 | inactive: 7.74%
19 | COc1cc(NC(=O)c2ccc3c(Cl)c4c(nc3c2)CCC4)cc(OC)c1OC | inactive: 13.3%
20 | O=C(COc1ccc([N+](=O)[O-])cc1)N1CCC(c2nc3ccccc3s2)CC1 | inactive: 31.5%
21 | CCOC(=O)Cn1c(=O)c2c(nc(N3CCOCC3)n2Cc2ccccc2)n(C)c1=O | inactive: -13.4%

Row | SMILES | activation
22 | CC(C)(CC(=O)OCC(=O)Nc1ccccc1F)CC1=NS(=O)(=O)c2ccccc2N1 | active: 112%
23 | CCOc1ccc(N(C(C)C(=O)NCCSc2ccc(Cl)cc2)S(C)(=O)=O)cc1 (centres undefined) | inactive: 40%
24 | CCc1ccc(CNC(=O)C2CCN(c3nnc(C)c4c(C)n(-c5ccc(C)cc5)nc34)CC2)cc1 | inactive: -16.7%
25 | COc1cc(-c2ccc(=O)[nH]n2)ccc1OC(F)F | inactive: 9.23%
26 | Cc1cc(NC(=O)c2cc(-c3ccc(Br)cc3)on2)nn1Cc1ccc(Cl)cc1 | inactive: -0.293%
27 | O=C(Nc1nnc(S(=O)(=O)N2CCCCCC2)s1)c1ccccc1F | inactive: 49.7%
28 | CCOC(=O)C1CCN(c2cc(C)nc3c(-c4ccccc4OC)c(C)nn23)CC1 | inactive: -14.8%
29 | O=C(Cn1nc(-c2ccccc2)c2cnc3ccc(F)cc3c21)NC1CCCC1 | inactive: -18.6%
30 | CCOc1cccc2sc(N3CCN(C(=O)C(C)(C)C)CC3)nc12 | inactive: -14.2%
31 | Cc1nc(N2CCOCC2)c2c(C(=O)N(C)Cc3ccccc3)c(C)oc2n1 | inactive: -11.7%
32 | Cc1cc(NC(=O)CSc2nc3c([nH]c4ccccc43)c(=O)n2-c2ccccc2F)no1 | inactive: -91.5%
33 | CCCCNc1nc(Oc2ccc(=O)n(-c3ccccc3)n2)nc(N(CC)CC)n1 | inactive: -9.28%
34 | Cc1ccc(-c2nnc(SCC(=O)N3CCCc4ccccc43)o2)cc1 | inactive: -5.51%
35 | COc1cccc(NC(=O)Cn2c(=O)n(Cc3ccccc3)c(=O)c3c4c(sc32)CN(C(C)=O)CC4)c1 | inactive: -13.4%
36 | COc1ccc(-c2cc(C(F)(F)F)nc(SCC(=O)NCc3ccc(F)cc3)n2)cc1 | inactive: -3.77%
37 | COc1ccc(-n2cc3c(c2-c2cccc(Br)c2)c(=O)n(C)c(=O)n3C)cc1OC | inactive: -8.77%
38 | CCCCc1ccc(NC(=O)Cn2cnc3c2c(=O)n(C)c(=O)n3C)cc1 | inactive: -12.9%
39 | COC(=O)c1ccccc1NC(=O)c1nc(SCc2ccccc2C)ncc1Cl | inactive: 4.15%
40 | Cc1cc(C)cc(C(=O)Nc2ccc(-c3cn4cccnc4n3)cc2)c1 | active: 103%
41 | Cc1cc(=O)[nH]c2nnc(SCc3cccc(F)c3)n12 | inactive: 15%
42 | CCOC(=O)NNc1nncc2ccccc12 | inactive: 2.88%

Row | SMILES | activation
43 | Cc1ccc(Cn2cc(CCC(=O)NC3CCCCC3)c3ccccc32)cc1 | inactive: -18.7%
44 | O=c1c2oc3ccccc3c2n(Cc2ccccc2F)c(=O)n1Cc1ccco1 | inactive: -6.63%
45 | Cc1ccccc1NC(=O)Nc1nnc(N(C)Cc2ccccc2)s1 | inactive: -12.6%
46 | Cc1cccc(N2CCN(C(=O)Nc3ccc(F)cc3)CC2C)c1 (centres undefined) | active: 63.3%
47 | Cc1c(Cl)cccc1N1CC(c2nc3ccccc3n2Cc2ccccc2F)CC1=O (centres undefined) | inactive: 39.1%
48 | Oc1ccccc1-c1nc(/C=C/c2ccc(F)cc2)no1 | inactive: 10.4%
49 | COc1ccccc1NC(=O)CN1C(=O)C(c2ccc(F)cc2)=NC1(C)C | inactive: -16%
50 | COc1ccc(S(=O)(=O)NC2(C(F)(F)F)NC(=O)N(CCc3ccccc3)C2=O)cc1 (centres undefined) | inactive: 7.71%
51 | CCCCCSc1nnc2c(n1)OC(c1ccc(C)s1)N(C(C)=O)c1ccccc1-2 (centres undefined) | inactive: -35.3%
52 | CCS(=O)(=O)c1c(Nc2ccc(F)c(Cl)c2)sc(C(=O)c2ccccc2)c1N | inactive: -35.6%
53 | Cc1cccc(NC(=O)Cn2c(=O)n(Cc3ccc4c(c3)OCO4)c(=O)c3ccccc32)c1 | inactive: -12.8%
54 | Cc1ccc(N2CCN(C(=O)c3nn(C)c4c3CS(=O)(=O)c3ccccc3-4)CC2C)cc1 (centres undefined) | inactive: 13.9%
55 | CCOc1ccc(-c2ccc(NS(=O)(=O)c3cc(C)ccc3OC)cc2)nn1 | inactive: -13.7%
56 | CCOc1ccc(-n2c(=O)c3c4c(sc3n(Cc3cccc(Cl)c3)c2=O)CCCC4)cc1 | inactive: -0.0672%
57 | Cc1ccc(NC(=O)Cn2c(=O)n(-c3ccc(CC(=O)NCC4CCCO4)cc3)c(=O)c3ccccc32)cc1 (centres undefined) | inactive: 5.05%
58 | CC1=C(c2ccc(C)c(C)c2)S(=O)(=O)N=C1N1CCN(c2cccc(C(F)(F)F)c2)CC1 | inactive: -5.2%
59 | CCCCN1CC(c2nc3ccccc3n2CCCCOc2c(C)cccc2C)CC1=O (centres undefined) | active: 71.6%
60 | O=C(NCC(c1ccc2c(c1)OCO2)N1CCOCC1)c1ccc(F)cc1 (centres undefined) | inactive: -17.1%
61 | Cc1ccc(/C=C(\C#N)c2nc(-c3cc4c(ccc5ccccc54)oc3=O)cs2)cc1 | inactive: 1.17%
62 | CCCC(=O)N(c1ccc2oc(-c3ccccc3)c(C(=O)OCC)c2c1)S(=O)(=O)c1ccc(C)cc1 | inactive: -32%
63 | COCCCNC(=O)Cn1c(=O)n(CCCC(=O)NCc2ccc(C)cc2)c(=O)c2ccccc21 | inactive: 14.2%

Row | SMILES | activation
64 | CCOc1ccc(Sc2cc(C(=O)NCCc3ccc(OC)c(OC)c3)c3ccccc3n2)cc1 | inactive: -7.79%
65 | Cc1cccc(C(=O)Nc2ccccc2-c2nc(-c3ccccc3)no2)c1 | inactive: -4.27%
66 | CC(=O)c1c(C)oc2ccc(N(C(=O)Oc3ccccc3)S(=O)(=O)c3ccc(Br)cc3)cc12 | inactive: -14.1%
67 | CC(C)CN(c1ccccc1)S(=O)(=O)c1nnc(NC(=O)c2ccco2)s1 | inactive: -3.16%
68 | CCn1cc(C(=O)N2CCN(c3ccccc3OC)CC2)c(=O)c2cc(S(=O)(=O)N3CCCCC3)ccc21 | inactive: -0.535%
69 | COc1ccc(-c2nn(-c3ccccc3)cc2C(=O)Nc2ccccc2OC)cc1 | inactive: -4.32%
70 | COc1cc(OC)c(NC(=O)c2oc3ccc4c(c3c2C)C(=O)CC(C)(C)O4)cc1Cl | inactive: -9.02%
71 | CCOc1ccccc1NC(=O)Cn1c(=O)n(Cc2ccc(C(=O)NCCCOC)cc2)c(=O)c2ccccc21 | inactive: 1.42%
72 | Cn1cc(C(=O)NCc2ccc(F)cc2)c(=O)c2cc(S(=O)(=O)N3CCCCC3)ccc21 | inactive: -0.544%
73 | O=C(CCSCc1ccccc1F)N1CCN(c2ccc(F)cc2)CC1 | inactive: -26.3%
74 | COc1ccc(NC(=O)N2CCc3c(sc4c3CCCC4)C2c2ccc(F)cc2)cc1 (centres undefined) | inactive: -6.63%
75 | CC(C)c1ccc(Nc2nc3ccc(C(=O)c4ccccc4)cc3n3cnnc23)cc1 | inactive: -18.9%
76 | CCn1c(=O)c2cc(C(=O)N(C)c3cc(C)ccc3C)sc2c2ccccc21 | inactive: 10.5%
77 | O=C(O)c1cccc(NC(=O)c2cccc(S(=O)(=O)Nc3cccc(C(=O)O)c3)c2)c1 | inactive: -20.5%
78 | CCc1ccc(CNC(=O)c2cc3c(=O)oc4ccc(C)cc4c3s2)cc1 | inactive: 0.631%
79 | Cc1ccc(NC(=O)Nc2nnc(N3CCCCC3)s2)c(C)c1 | inactive: 7.81%
80 | CCN(C(=O)c1sc2nc3n(c(=O)c2c1C)CCCCC3)c1ccccc1F | inactive: -5.33%
81 | COc1cc(OC)cc(-n2c(=O)[nH]c3cc(C(=O)NCCc4ccc(C)cc4)ccc3c2=O)c1 | inactive: 42.6%
82 | CN(C)C(=O)c1ccc(S(=O)(=O)NCc2ccccc2Cl)s1 | inactive: -1.75%
83 | COc1ccc(NC(=O)c2ccc3snnc3c2)cc1OC | inactive: 0.345%
84 | O=C(COC(=O)c1cc(-c2cccs2)nc2ccccc12)c1ccc(Cl)cc1 | inactive: -6.07%
